# Data reported in the RNAGym collection of RNA variant scans (doi:10.1093/nar/gkz1192).
# Read counts are not given, so values of variants with three or more changes are uncertain.
# B1: CPEB3 Ribozyme (parent)
# chain: UAACAGGGGGCCACAGCAGAAGCGUUCACGUCGCAGCCCCUGUCAGAUUCUGGUGAAUCUGCGAAUUCUGCUGUAUAUCUC
# Variants of: B1
# Test: self-cleavage, relative activity (ratio to wild type); higher = more cleavage; in vitro, sequencing
# Outline: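 Relative activity was defined as the cleaved/total read fraction for a variant divided by the same fraction for the unmutated ribozyme. CPEB3 self-cleaving ribozyme libraries were made by rounds of error-prone PCR, barcoded, and transcribed in vitro with T7 RNA polymerase for 5 hours at 37°C, and cleavage ran through transcription plus a 15 min DNase I step before EDTA. Illumina sequencing of template-switched reverse transcripts gave the reads, and DNA sequencing mapped the barcodes. Averages come from three batches, using variants with at least 5 reads.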
row,Variant,self-cleavage
1,C12G A18U U31C,0.22
2,C12U A13G A21G U72C,0.21
3,C12U A15G A65G U78A U80A,0.75
4,C12U A21G A57G U60A,0.38
5,C12G G16C A45G U49C U72A U76A A77U,0.06
6,C12G A20G C40A A64U,0.05
7,C12U A21G A56U A57G,0.48
8,C12U A18C C29U C32U U72C,0.22
9,C12G A47G A64U U72C,0.16
10,C12U A18G A20G U41A A56G U60C U80A,0.05
11,C12U A21G G36A C40U U43G,0.11
12,C12U A20G U80C,1.09
13,C12G A20G U25C C32A U41A U60C A65U,0.1
14,C12G A18U A45G U49A U69C U72G U76C,0.05
15,C12G U26C U54C A56G U69A,0.07
16,C12G U31C U43A U51A U72A C81A,0.12
17,C12U A18G U25C G46A,0.1
18,C12G G33A A35G A47G,0.17
19,C12U A15G C23A U54A U58A A77U,0.19
20,C12U A13G U48C,0.69
21,C12G C29U A35U U48A U69C U74A U78C,0.05

row,Variant,self-cleavage
1,C12G A20G U41C A45U U49A U72C,0.17
2,C12G G24U U25C U31C A56G,0.14
3,C12U A18G G19C C23U U66C,0.17
4,C12U A18U C59A U69A,0.84
5,C12G C38U U72C,0.33
6,C12G A13U G36U A75G,0.2
7,C12U A21G U31C U41A,0.07
8,C12U A18C A21G U60A A64G U69C,0.06
9,C12U A15G A20C U80C,0.42
10,C12G G19A C29A U31G U51C A77G U80C,0.03
11,C12G C29U U41C U48C U49C U67C,0.03
12,C12G C38U U60A U72C,0.12
13,C12U A18G A20U A21C U41C A45G,0.04
14,C12U A15C A47G C68A U72C,0.74
15,C12G A13G A45U U69A,0.24
16,C12G A13U U25C C38A C40A,0.3
17,C12U A18G U25A G52U,0.08
18,C12U A20G U43A U54C U60A U72C,0.45
19,C12U A13G U25C A57C U60C U69A U72A,0.04
20,C12A U49C A56G,1.18
21,C12G A18G A28G A56G A64U U72A U78A,0.12

row,Variant,self-cleavage
1,C12U A13G U25C A35U U69C U78C,0.07
2,C12U A13G C14A U25C A65U U80C,0.25
3,C12U A15G A21G C38G U43A,0.06
4,C12U A13U U54C U69C U80A,0.87
5,C12U A20U A35U U69A U76C,0.07
6,C12U A18G U49C C71A,0.15
7,C12G U51C A77U,0.62
8,C12U A13U U72C,1.25
9,C12G A13G A28G A35U A45U U80G,0.03
10,C12U A15C U54C U72A,1.18
11,C12U A18G A56G A75U,1.04
12,C12U A18C A28G A45G U49C U74A,0.24
13,C12G U54C A56G A64U U78C,0.07
14,C12U A15C A28U U78C,0.87
15,C12U A20G A28U,1.07
16,C12G A13G A45U G55A U69A,0.12
17,C12U A20U G61U A65G,0.12
18,C12G U78C U80C,0.38
19,C12G A21G C34G C40A U69A,0.04
20,C12G A18G C40A,0.15
21,C12U A18G A56U,0.38

row,Variant,self-cleavage
1,C12G A35U U51C A56G,0.18
2,C12U A21G U41A U58A,0.1
3,C12G C44G A57G,0.07
4,C12U A13C U25C U51C A64U U67C,0.04
5,C12U A18G C37U G73C,1.18
6,C12U A20G U41C U69C,0.67
7,C12U A18G U78C,0.45
8,C12U A28G A56G U72A,0.55
9,C12G A13U U25C C40A U49C A56U U78G,0.05
10,C12G U54C U72A,0.07
11,C12G U43C U48C C59A C71G U76C,0.03
12,C12U A15U U54C A65G C71U C79U,0.17
13,C12U A18G U54C,0.96
14,C12G A45U U51C U69C,0.19
15,C12U A13G A28G U31C,0.24
16,C12U A21U A45G A75U A77G,0.45
17,C12U A15G C37A C39U U43A,0.09
18,C12U A15U A65G U67C U69C,0.23
19,C12U A18G G52U U58C A64G U69C,0.72
20,C12U A28G A35C,0.43
